Experimental data as given in the supplement of paper PMC4604168 (melanoma cell lines).
The other results are listed elsewhere or left out. Most values come without repeats; read them as rough.

Tests used:
Assay in all cases: cell count relative to DMSO control; melanoma cells; higher = more viable cells
Settings in all cases: library dose: standard library concentration; 72 h
G361 = tested on: G361
IPC-298 = tested on: IPC-298
IST-MEL1 = tested on: IST-MEL1
LB2518-MEL = tested on: LB2518-MEL
LOXIMVI = tested on: LOXIMVI
MEL-HO = tested on: MEL-HO
MZ2-MEL = tested on: MZ2-MEL
MeWo = tested on: MeWo
RPMI7951 = tested on: RPMI7951
RVH-421 = tested on: RVH-421
SkMel28 = tested on: SkMel28
SkMel2 = tested on: SkMel2
SkMel30 = tested on: SkMel30
SkMel5 = tested on: SkMel5
UACC257 = tested on: UACC257
UACC62 = tested on: UACC62
WM115 = tested on: WM115
WM1716 = tested on: WM1716
WM1745 = tested on: WM1745
WM3526 = tested on: WM3526
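Further: cells treated in 1,536-well plates, then fixed and DAPI-stained, with nuclei counted from automated high-throughput microscope images.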

SMILES | cell count (G361) [%] | cell count (IPC-298) [%] | cell count (IST-MEL1) [%] | cell count (LB2518-MEL) [%] | cell count (LOXIMVI) [%] | cell count (MEL-HO) [%] | cell count (MZ2-MEL) [%] | cell count (MeWo) [%] | cell count (RPMI7951) [%] | cell count (RVH-421) [%] | cell count (SkMel28) [%] | cell count (SkMel2) [%] | cell count (SkMel30) [%] | cell count (SkMel5) [%] | cell count (UACC257) [%] | cell count (UACC62) [%] | cell count (WM115) [%] | cell count (WM1716) [%] | cell count (WM1745) [%] | cell count (WM3526) [%]
NC(=O)c1ccc(N(C(N)=O)c2c(F)cccc2F)nc1-c1ccc(F)cc1F + CN1CCN(c2ccc3nc(-c4c(N)c5c(F)cccc5[nH]c4=O)[nH]c3c2)CC1 [Dovitinib] (first compound 2 µM, partner dose 0.5 µM) | 73.1 | 82.1 | 74.8 | 52.4 | 200 | 80.2 | 66.8 | 41.8 | 123 | 86 | 65.7 | 70.7 | 78 | 58.3 | 94.1 | 59.1 | 53.4 | 104 | 57.5 | 59.7
CCc1ccc(CCOc2ccc(CC3SC(=O)NC3=O)cc2)nc1 (stereo not given) [pioglitazone] + O=C1NC(=O)/C(=C/c2ccc(-c3ccc(F)cc3O)o2)S1 [AS252424] (first compound 10 µM, partner dose 5 µM) | 87.3 | 79.7 | 105 | 84.5 | 109 | 82.9 | 82.1 | 101 | 102 | 111 | 84 | 85.4 | 100 | 86.4 | 85.4 | 98.5 | 81.6 | 79.6 | 72.3 | 84.6
CCCCCCCCc1ccc(CCC(N)(CO)CO)cc1 [fingolimod] + O=C(Nc1cccc(Cl)c1)Nc1ncc(CCNc2ncnc3ccsc23)s1 [SNS314] (first compound 10 µM, partner dose 0.004 µM) | 0.355 | 51.5 | 5.18 | 0.553 | 11.2 | 2.07 | 1.55 | 20.8 | 3.04 | 35 | 0.252 | 0.297 | 7.58 | 40.7 | 53.9 | 21.8 | 12 | 37.5 | 2.14 | 21.4
CCCCCCCCc1ccc(CCC(N)(CO)CO)cc1 [fingolimod] + C[C@@H](Oc1cc(-c2cnn(C3CCNCC3)c2)cnc1N)c1c(Cl)ccc(F)c1Cl [Crizotinib] (first compound 10 µM, partner dose 1 µM) | 0.382 | 3.6 | 8.8 | 0.226 | 24.2 | 5.97 | 1.67 | 11 | 0.892 | 3.58 | 0.507 | 0.108 | 13.7 | 53.8 | 64.3 | 20.1 | 26.1 | 48.9 | 4.46 | 60.4
Cc1ccc(NC(=O)c2cccc(N(C)C)c2)cc1NC(=O)c1ccc(O)cc1 + O=C(Nc1cccc(Cl)c1)Nc1ncc(CCNc2ncnc3ccsc23)s1 [SNS314] (first compound 10 µM, partner dose 0.004 µM) | 48.7 | 56.6 | 57.4 | 67 | 86.6 | 78.3 | 82.5 | 57.6 | 50.8 | 87.8 | 38.6 | 76.4 | 96.5 | 97.2 | 73.1 | 97.6 | 46.8 | 53 | 81.5 | 70.5
CC(C)(C)c1cnc(CSc2cnc(NC(=O)C3CCNCC3)s2)o1 + N#Cc1c(O)c2c(-c3ccc(-c4ccccc4O)cc3)csc2[nH]c1=O [A769662] (first compound 0.05 µM, partner dose 10 µM) | 106 | 117 | 96.3 | 79.7 | 88 | 92.6 | 93.7 | 99.4 | 55.5 | 84.7 | 98.9 | 92.3 | 120 | 78 | 108 | 75.1 | 107 | 92.7 | 96.7 | 107
NC(=O)c1ccc(N(C(N)=O)c2c(F)cccc2F)nc1-c1ccc(F)cc1F + CC(C)(C)c1cnc(CSc2cnc(NC(=O)C3CCNCC3)s2)o1 [SNS-032] (first compound 2 µM, partner dose 0.05 µM) | 83.8 | 117 | 114 | 73.2 | 85.2 | 99 | 98.4 | 87.3 | 26.1 | 90 | 88.5 | 80 | 80.1 | 57.6 | 94.3 | 76.2 | 90.1 | 83.2 | 72.4 | 87.1
NC(=O)c1ccc(N(C(N)=O)c2c(F)cccc2F)nc1-c1ccc(F)cc1F + CO[C@@H]1[C@H](N(C)C(=O)c2ccccc2)C[C@H]2O[C@]1(C)n1c3ccccc3c3c4c(c5c6ccccc6n2c5c31)C(=O)NC4 [Midostaurin] (first compound 2 µM, partner dose 0.4 µM) | 45.1 | 63 | 71.8 | 73.5 | 48.5 | 76.6 | 68.9 | 68 | 53.9 | 50.1 | 58.6 | 60.7 | 70.1 | 48.3 | 78.8 | 85.8 | 54.2 | 38.7 | 54.3 | 81.8
NC(=O)c1ccc(N(C(N)=O)c2c(F)cccc2F)nc1-c1ccc(F)cc1F + C=CCNC1=C2C[C@@H](C)C[C@H](OC)[C@H](O)[C@@H](C)/C=C(\C)[C@H](OC(N)=O)[C@@H](OC)/C=C\C=C(/C)C(=O)NC(=CC1=O)C2=O [Tanespimycin] (first compound 2 µM, partner dose 0.01 µM) | 72.3 | 106 | 68.4 | 110 | 89 | 86.7 | 134 | 95.7 | 31.6 | 101 | 53.9 | 118 | 95.4 | 57.3 | 95.6 | 64.1 | 28.3 | 99.6 | 59.1 | 90.3
CN(NC(=O)CC(=O)NN(C)C(=S)c1ccccc1)C(=S)c1ccccc1 + CCCCCCCCCCCC1=C(O)C(=O)C=C(O)C1=O [Embelin] (first compound 0.03 µM, partner dose 6 µM) | 20.6 | 38.9 | 30.3 | 15.5 | 89.5 | 62.8 | 90.3 | 17.9 | 78.4 | 41.4 | 24.2 | 53.3 | 78.9 | 55 | 82.7 | 55.4 | 32.9 | 72 | 16 | 91
NC(=O)c1ccc(N(C(N)=O)c2c(F)cccc2F)nc1-c1ccc(F)cc1F + Nc1nc(F)nc2c1ncn2[C@@H]1O[C@H](CO)[C@@H](O)[C@@H]1O [fludarabine] (first compound 2 µM, partner dose 1 µM) | 86.5 | 91.7 | 68.8 | 90.1 | 114 | 79.3 | 121 | 92.4 | 60.6 | 71.6 | 3.11 | 1.28 | 22.7 | 33.4 | 36.5 | 72.7 | 96.4 | 114 | 74.8 | 26.1
NC(=O)c1ccc(N(C(N)=O)c2c(F)cccc2F)nc1-c1ccc(F)cc1F + Cc1cc(N2CCOCC2)cc2[nH]c(-c3c(NC[C@@H](O)c4cccc(Cl)c4)cc[nH]c3=O)nc12 [BMS536924] (first compound 2 µM, partner dose 1 µM) | 66.4 | 96.5 | 101 | 108 | 96.3 | 102 | 148 | 72.5 | 101 | 70.7 | 71.2 | 78.7 | 83.9 | 58.3 | 91.9 | 128 | 123 | 105 | 51.5 | 85.5
Cc1ccc(NC(=O)c2cccc(N(C)C)c2)cc1NC(=O)c1ccc(O)cc1 + O=C(O)c1ccc(-c2c[nH]c3ncc(-c4ccccc4)cc23)cc1C1CCCC1 [GSK650394] (first compound 10 µM, partner dose 0.8 µM) | 47.5 | 70 | 60.5 | 102 | 74.6 | 63.5 | 83.1 | 73.4 | 63.4 | 71.9 | 66.6 | 72 | 74.9 | 61.1 | 79.9 | 59.4 | 91 | 87.7 | 100 | 71.7
NC(=O)c1ccc(N(C(N)=O)c2c(F)cccc2F)nc1-c1ccc(F)cc1F + CC1(C)NC(=O)N(c2ccc([N+](=O)[O-])c(C(F)(F)F)c2)C1=O [nilutamide] (first compound 2 µM, partner dose 5 µM) | 96.6 | 115 | 176 | 104 | 81.3 | 98 | 120 | 102 | 97.7 | 459 | 79.4 | 94.4 | 121 | 77.8 | 94.6 | 83.5 | 112 | 141 | 93.7 | 87.7
CCCCCCCCc1ccc(CCC(N)(CO)CO)cc1 [fingolimod] + CC(C)C[C@H](NC(=O)[C@H](Cc1ccccc1)NC(=O)c1cnccn1)B(O)O [Bortezomib] (first compound 10 µM, partner dose 0.005 µM) | 1.54 | 5.38 | 9.52 | 0.795 | 23.1 | 1.14 | 0.731 | 8.27 | 0.311 | 2.23 | 1.84 | 0.867 | 6.06 | 20.7 | 69.2 | 15.5 | 14.8 | 10.3 | 4.54 | 16
CCCCCCCCc1ccc(CCC(N)(CO)CO)cc1 [fingolimod] + Cn1cncc1[C@@](N)(c1ccc(Cl)cc1)c1ccc2c(c1)c(-c1cccc(Cl)c1)cc(=O)n2C [tipifarnib] (first compound 10 µM, partner dose 0.05 µM) | 0.261 | 58.8 | 11.1 | 0.189 | 4.47 | 1.52 | 1.37 | 6.66 | 1.51 | 28.9 | 2.79 | 0.502 | 10.2 | 42.3 | 62.3 | 15.4 | 12.1 | 9.55 | 6 | 19.1
Cc1ccc(NC(=O)c2cccc(N(C)C)c2)cc1NC(=O)c1ccc(O)cc1 + c1cc(-c2cnn3cc(-c4ccc(OCCN5CCCCC5)cc4)cnc23)ccn1 [Dorsomorphin] (first compound 10 µM, partner dose 2 µM) | 82.8 | 87.4 | 86.1 | 41 | 87.5 | 71.8 | 64.2 | 89 | 92.5 | 84 | 66.4 | 81.1 | 90.2 | 75.2 | 101 | 100 | 90.7 | 113 | 49.7 | 81.1
CCCCCCCCc1ccc(CCC(N)(CO)CO)cc1 [fingolimod] + CC(=O)O[C@@]12CO[C@@H]1C[C@H](O)[C@@]1(C)C(=O)[C@H](O)C3=C(C)[C@@H](OC(=O)[C@H](O)[C@@H](NC(=O)OC(C)(C)C)c4ccccc4)C[C@@](O)([C@@H](OC(=O)c4ccccc4)[C@H]21)C3(C)C [Docetaxel] (first compound 10 µM, partner dose 0.0005 µM) | 1.78 | 31.2 | 13.5 | 0.219 | 32 | 7.6 | 9.84 | 13.4 | 0.966 | 18.8 | 2.23 | 0.319 | 18.1 | 49.8 | 54 | 12.7 | 10.3 | 33.5 | 2.69 | 31.4
